This is one part of the list.

For this assay, the system named is T1, C. trachomatis L2/434/Bu expressing GFP (CTL2-GFP).
T1 construct: L2/434/Bu GFP intracellular growth in HeLa cells
Also noted: species or system HeLa; C. trachomatis total inclusion area by high-content imaging, normalised to DMSO. As to conditions: total inclusion area; 28.5 h, 10 µM; inhibitor. The method in brief:
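Host cell viability was gauged from Hoechst-stained nuclei counts, while chlamydial growth was taken from total inclusion area and inclusion number per well. Cells were fixed and imaged by high-content microscopy once bulk GFP and resorufin fluorescence had been measured.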
For the molecule `O=C1CCN(Cc2ccccc2)CCN1Cc1cccc(F)c1` [CBK284466], the “% of control remaining” value stood at 100.067.
`CCC(=O)NC(NC(=S)Nc1cccc2cccnc12)C(Cl)(Cl)Cl` (stereo not drawn) [CBK261027]: the “% of control remaining” value is on record as 107.775.
The same measure for `O=C(c1ccc2c(c1)C(=O)N(c1ccncc1)C2=O)c1ccc2c(c1)C(=O)N(c1ccncc1)C2=O` [CBK261194]: 102.666; for `Cc1ccc(S(=O)(=O)Nc2ccc(C(C)C)cc2)cc1C(=O)O` [CBK297766]: 106.171.
In the case of `CC(CCN(CCN)C(=O)N1CCC(CNS(C)(=O)=O)(c2ccccc2)CC1)c1ccccc1` (stereo not drawn) [CBK002335C] it was 66.9681.
`Cc1ccc(C(=O)NC2CCCC2)cc1[N+](=O)[O-]` [CBK001993]: the “% of control remaining” value worked out at 43.1495.
For the molecule `CC(Sc1ccc(Br)c2cccc(C(=O)O)c12)C(=O)O` (stereo not drawn) [CBK266226], the “% of control remaining” value amounted to 96.2315.
In the case of `CC(=O)Nc1ccc(OC(=O)c2ccc(Br)o2)cc1` [CBK293917], the “% of control remaining” value is 84.1983.
Regarding `CCN(Cc1cnn(C)c1)S(=O)(=O)c1ccc2c(c1)CCCC(=O)N2` [CBK304782], the “% of control remaining” value is 65.3568.
For `O=[N+]([O-])c1cccc(Cn2c(CO)nc3ccccc32)c1` [CBK297515], the “% of control remaining” value is listed as 103.074.
Take `O=C1CCC(=O)N1CCOc1nccnc1-c1ccc2c(c1)OCO2` [CBK106698]: the “% of control remaining” value came out at 109.366.
Take `COc1ccccc1-c1ccc(Nc2ccccc2)nc1` [CBK036909]: the “% of control remaining” value is 104.391.
With `Cc1cccc(CN2CC[C@H]3[C@@H](C2)[C@H](c2ccsc2)CN3C(=O)c2ccc(F)cc2)c1` [CBK285639], the “% of control remaining” value is reported as 102.728.
Regarding `CC(NC(=O)c1ncoc1-c1ccc(F)cc1)c1cccnc1` (stereo not drawn) [CBK282358], the “% of control remaining” value came to 79.2433.
For the molecule `Cc1cc(-c2cn3cc(C(=O)N(C)CC(C)O)nc3c(=O)n2C)c(C)o1` (stereo not drawn) [CBK307154], the “% of control remaining” value amounted to 62.4023.
Take `CCOC(=O)N1CCCN(C(=O)OCC)CC1` [CBK034324]: the “% of control remaining” value was found to be 10.8773.
As for `N#Cc1cccnc1N1CCC(NC(=O)c2ccc3nccn3c2)CC1` [CBK306566], the “% of control remaining” value amounted to 57.7139.
For `O=C(Cc1ccccc1F)N1CCC(c2cc3cccnc3[nH]2)CC1` [CBK285035], the “% of control remaining” value is given as 86.4922.
The same measure for `CC(=O)NCCNC(=O)c1ccc(-c2cnc(OCC3CCN(C(=O)OC(C)(C)C)CC3)nc2)cn1` [CBK170023]: 46.332; for `O=C(O)/C=C/C(=O)Nc1ccccc1Br` [CBK086488]: 112.55.
`COc1ccc(N(CCC#N)S(=O)(=O)c2cccc3nsnc23)cc1` [CBK025851]: the “% of control remaining” value stood at 78.66.
For the molecule `O=C(CN1CCCCCC1=O)NCC(CO)Cc1ccsc1` (stereo not drawn) [CBK306763], the “% of control remaining” value came out at 59.6238.
Turning to `CN(Cc1ccc2c(c1)OCO2)C(=O)c1cnn2c(-c3ccccc3)ccnc12` [CBK298276], the “% of control remaining” value turned out to be 90.2776.
`Cc1cc(C)c(C)c(S(=O)(=O)NCc2ccc(C(=O)Nc3ccncc3)cc2)c1C` [CBK267193]: the “% of control remaining” value is reported as 69.9074.
For the molecule `CCOC(=O)CCCNC(=O)N1CCCC(C(=O)O)C1` (stereo not drawn) [CBK161374], the “% of control remaining” value is reported as 55.067.
The same measure for `c1cnc(-c2ccc3c(c2)OCO3)c(OC2CCCCC2)n1` [CBK106706]: 106.869; for `O=C(c1ccccc1)N1C[C@H](c2ccsc2)[C@H]2CN(Cc3cccs3)CC[C@H]21` [CBK285623]: 92.6594; for `CC(C)(C)C1=CC2=NC3(CCCCC3)[C@@H]3C[C@@H](O)[C@@H](O)[C@@H]3N2O1` [CBK303235]: 67.8815.
Take `COCC(O)CN(C)C(=O)c1ccc(Oc2cccc(Br)c2)nc1` (stereo not drawn) [CBK304229]: the “% of control remaining” value stood at 22.9331.
Consider `Cc1[nH]c2ccccc2c1/C=N/c1ccc(/N=C/c2c(C)[nH]c3ccccc23)cc1` [CBK261226], for which the “% of control remaining” value is 105.257.
The same measure for `Cc1nn(CC(=O)N2CCCCCC2)c(=O)c2cc3occc3n12` [CBK283624]: 89.4097.
For `O=S(=O)(Nc1nnn[nH]1)c1ccc(-c2ccccc2)cc1` [CBK062381], the “% of control remaining” value came out at 102.647.
`O=C1CC(c2ccco2)CC(=O)C1=CNCCN1CCN(C(=O)Nc2ccc(Cl)cc2)CC1` (stereo not drawn) [CBK264743]: the “% of control remaining” value came out at 112.8.
Regarding `CCc1nnc2ccc(NCc3ccccc3)nn12` [CBK287888], the “% of control remaining” value is reported as 55.7137.
In the case of `Cn1ncc(N2CCC(CNC(=O)c3ccccc3Cl)C2)cc1=O` (stereo not drawn) [CBK306747] it was 63.0711; in that of `O=C(O)CCc1ccc(-c2ccc(F)cc2)n1CCc1ccccc1` [CBK265936], 82.5556.
The same measure for `CCOC(=O)c1cccc(-c2cc3ccccc3o2)n1` [CBK149243]: 112.158.
Regarding `COc1cccc(NC(=O)c2ccc(N(C)Cc3ccccc3)c([N+](=O)[O-])c2)c1` [CBK267827], the “% of control remaining” value is reported as 83.3679.
For the molecule `c1ccc(CSc2ccc3nnc(-c4ccncc4)n3n2)cc1` [CBK287625], the “% of control remaining” value is given as 44.8089.
With `Sc1nnc(COc2ccc(Cl)cc2Cl)n1Cc1ccccc1` [CBK263138], the “% of control remaining” value was found to be 86.6851.
Turning to `CCCS(=O)(=O)n1ccn(-c2ccc(Cl)c(Cl)c2)c1=O` [CBK106667], the “% of control remaining” value is given as 80.0345.
For the molecule `O=C(Nc1cccnc1)c1cc2cc(F)ccc2[nH]1` [CBK107272], the “% of control remaining” value stood at 123.511.
For `COc1ccccc1CCNC(=O)N1CCC(Oc2cccnc2)CC1` [CBK307615], the “% of control remaining” value stood at 65.6146.
Regarding `CCCC(=O)Nc1ccc(OCCOC(C)(C)C)c(C(C)=O)c1` [CBK305691], the “% of control remaining” value worked out at 86.9704.
As for `COc1ccc(CCNc2ncnc3c2cnn3-c2ccc(Cl)cc2)cc1OC` [CBK265804], the “% of control remaining” value is recorded as 91.7849.
Take `N/N=C(\CCC(=O)O)c1ccccc1` [CBK261306]: the “% of control remaining” value is 75.6139.
In the case of `Cc1ccccc1-c1nc(S(=O)(=O)c2ccc(Cl)cc2)c(NCC2CCCO2)o1` (stereo not drawn) [CBK267668] it was 88.6084; in that of `O=C(O)c1ccc(S(=O)(=O)c2ccc3c(c2)C(=O)N(c2ccc(Sc4ccc([N+](=O)[O-])cc4)cc2)C3=O)cc1` [CBK262869], 71.7205.
Consider `Cc1nn(C)cc1-c1cncn1CCn1nc(C)c(C)c1C` [CBK281785], for which the “% of control remaining” value was 90.5906.
In the case of `NC1CCC(NC(=O)c2cnc(-c3ccc(Cl)cc3)c(-c3ccco3)c2)CC1` (stereo not drawn) [CBK037563], the “% of control remaining” value is reported as 126.104.
As for `COc1cccc(C(=O)Nc2nc(-c3ccc(S(=O)(=O)N4CCCC4)cc3)cs2)c1` [CBK096257], the “% of control remaining” value came out at 91.9479.
